This is one part of the list.
Biological target: T1, MBP-FoxP1dN (Mus musculus, UniProt P58462 326-579)
T1 sequence: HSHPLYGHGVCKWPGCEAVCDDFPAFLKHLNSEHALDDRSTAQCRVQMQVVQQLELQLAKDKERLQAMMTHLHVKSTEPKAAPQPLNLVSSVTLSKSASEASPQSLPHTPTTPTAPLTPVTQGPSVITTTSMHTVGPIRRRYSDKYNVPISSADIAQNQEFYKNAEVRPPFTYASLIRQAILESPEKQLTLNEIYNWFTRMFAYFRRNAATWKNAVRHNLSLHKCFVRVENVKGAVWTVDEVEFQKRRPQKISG
Experiment: PD-seq (MBP pull-down with sequencing); 20 mM Tris-HCl pH 7.5, 100 mM NaCl, 1.5 mM MgCl2, 0.4 uM protein, 0.1 uM dsDNA library, 30 min, room temperature, amylose pull-down; high values mean tight binding
Settings: protein: recombinant; tags: His6-MBP; chain copies: 2; dsDNA, one strand shown
Summary of the method: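 Protein and DNA were mixed at 0.4 µM and 0.1 µM and held for 30 min at room temperature in Tris pH 7.5 buffer with NaCl and MgCl2; the protein was a His6-MBP-tagged, N-terminally truncated mouse FoxP3 or FoxP1 fragment from E. coli, and the DNA a Klenow-filled double-stranded degenerate library. Amylose resin captured the complexes, which were washed three times. Binding is read as reads-per-million enrichment of pull-down versus input after Illumina sequencing, with replicates pooled.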

| Sequence | binding signal |
| --- | --- |
| GATGATTGTTCTCCCAGCTGATGAATTTTTAGCATCGAGTAAACAAATTTTCCTAATCTTTCTGTTCAAGCGCCATCTAC | 1.3 RPM ratio (pull-down/input) |
| GATGATTGTTCTCCCAGCTGATGAATTTCAGATTTCGAGTAAACAAATTTTCCTAATCTTTCTGTTCAAGCGCCATCTAC | 0.843 RPM ratio (pull-down/input) |
| GATGATTGTTCTCCCAGCTGATGAATTTTTGTTTTCGAGTAAACAAATTTTCCTAATCTTTCTGTTCAAGCGCCATCTAC | 2.71 RPM ratio (pull-down/input) |
| GATGATTGTTCTCCCAGCTGATGAATTGAGAGCGTCGAGTAAACAAATTTTCCTAATCTTTCTGTTCAAGCGCCATCTAC | 0.847 RPM ratio (pull-down/input) |
| GATGATTGTTCTCCCAGCTGATGAATTTCGCCGGTCGAGTAAACAAATTTTCCTAATCTTTCTGTTCAAGCGCCATCTAC | 0.75 RPM ratio (pull-down/input) |
| GATGATTGTTCTCCCAGCTGATGAATTCTATACCTCGAGTAAACAAATTTTCCTAATCTTTCTGTTCAAGCGCCATCTAC | 0.916 RPM ratio (pull-down/input) |
| GATGATTGTTCTCCCAGCTGATGAATTCCGTTTGTCGAGTAAACAAATTTTCCTAATCTTTCTGTTCAAGCGCCATCTAC | 1.06 RPM ratio (pull-down/input) |
| GATGATTGTTCTCCCAGCTGATGAATTGTCAGATTCGAGTAAACAAATTTTCCTAATCTTTCTGTTCAAGCGCCATCTAC | 0.966 RPM ratio (pull-down/input) |
| GATGATTGTTCTCCCAGCTGATGAATTTCGTGTATCGAGTAAACAAATTTTCCTAATCTTTCTGTTCAAGCGCCATCTAC | 1.15 RPM ratio (pull-down/input) |
| GATGATTGTTCTCCCAGCTGATGAATTCCCTCACTCGAGTAAACAAATTTTCCTAATCTTTCTGTTCAAGCGCCATCTAC | 0.853 RPM ratio (pull-down/input) |
| GATGATTGTTCTCCCAGCTGATGAATTTGCAGTCTCGAGTAAACAAATTTTCCTAATCTTTCTGTTCAAGCGCCATCTAC | 0.885 RPM ratio (pull-down/input) |
| GATGATTGTTCTCCCAGCTGATGAATTTTGGCGATCGAGTAAACAAATTTTCCTAATCTTTCTGTTCAAGCGCCATCTAC | 0.955 RPM ratio (pull-down/input) |
| GATGATTGTTCTCCCAGCTGATGAATTGCTCTTATCGAGTAAACAAATTTTCCTAATCTTTCTGTTCAAGCGCCATCTAC | 1.17 RPM ratio (pull-down/input) |
| GATGATTGTTCTCCCAGCTGATGAATTTTACACCTCGAGTAAACAAATTTTCCTAATCTTTCTGTTCAAGCGCCATCTAC | 0.864 RPM ratio (pull-down/input) |
| GATGATTGTTCTCCCAGCTGATGAATTCCATTAGTCGAGTAAACAAATTTTCCTAATCTTTCTGTTCAAGCGCCATCTAC | 0.857 RPM ratio (pull-down/input) |
| GATGATTGTTCTCCCAGCTGATGAATTCTCTTGATCGAGTAAACAAATTTTCCTAATCTTTCTGTTCAAGCGCCATCTAC | 0.905 RPM ratio (pull-down/input) |
| GATGATTGTTCTCCCAGCTGATGAATTCATGTCATCGAGTAAACAAATTTTCCTAATCTTTCTGTTCAAGCGCCATCTAC | 1.3 RPM ratio (pull-down/input) |
| GATGATTGTTCTCCCAGCTGATGAATTCGCCACCTCGAGTAAACAAATTTTCCTAATCTTTCTGTTCAAGCGCCATCTAC | 0.846 RPM ratio (pull-down/input) |
| GATGATTGTTCTCCCAGCTGATGAATTCACTGTGTCGAGTAAACAAATTTTCCTAATCTTTCTGTTCAAGCGCCATCTAC | 0.907 RPM ratio (pull-down/input) |
| GATGATTGTTCTCCCAGCTGATGAATTACTTTACTCGAGTAAACAAATTTTCCTAATCTTTCTGTTCAAGCGCCATCTAC | 1.04 RPM ratio (pull-down/input) |
| GATGATTGTTCTCCCAGCTGATGAATTACCTTCGTCGAGTAAACAAATTTTCCTAATCTTTCTGTTCAAGCGCCATCTAC | 0.952 RPM ratio (pull-down/input) |

| Sequence | binding signal |
| --- | --- |
| GATGATTGTTCTCCCAGCTGATGAATTTATGCAATCGAGTAAACAAATTTTCCTAATCTTTCTGTTCAAGCGCCATCTAC | 1.56 RPM ratio (pull-down/input) |
| GATGATTGTTCTCCCAGCTGATGAATTAAAAGCTTCGAGTAAACAAATTTTCCTAATCTTTCTGTTCAAGCGCCATCTAC | 0.91 RPM ratio (pull-down/input) |
| GATGATTGTTCTCCCAGCTGATGAATTGTTGTGGTCGAGTAAACAAATTTTCCTAATCTTTCTGTTCAAGCGCCATCTAC | 2.1 RPM ratio (pull-down/input) |
| GATGATTGTTCTCCCAGCTGATGAATTAGAACGTTCGAGTAAACAAATTTTCCTAATCTTTCTGTTCAAGCGCCATCTAC | 0.917 RPM ratio (pull-down/input) |
| GATGATTGTTCTCCCAGCTGATGAATTGCCGGCATCGAGTAAACAAATTTTCCTAATCTTTCTGTTCAAGCGCCATCTAC | 1.12 RPM ratio (pull-down/input) |
| GATGATTGTTCTCCCAGCTGATGAATTAATAGAGTCGAGTAAACAAATTTTCCTAATCTTTCTGTTCAAGCGCCATCTAC | 0.852 RPM ratio (pull-down/input) |
| GATGATTGTTCTCCCAGCTGATGAATTGCTGATTTCGAGTAAACAAATTTTCCTAATCTTTCTGTTCAAGCGCCATCTAC | 1.31 RPM ratio (pull-down/input) |
| GATGATTGTTCTCCCAGCTGATGAATTGTATCGGTCGAGTAAACAAATTTTCCTAATCTTTCTGTTCAAGCGCCATCTAC | 1.02 RPM ratio (pull-down/input) |
| GATGATTGTTCTCCCAGCTGATGAATTTTCACTGTCGAGTAAACAAATTTTCCTAATCTTTCTGTTCAAGCGCCATCTAC | 0.909 RPM ratio (pull-down/input) |
| GATGATTGTTCTCCCAGCTGATGAATTGTGTACCTCGAGTAAACAAATTTTCCTAATCTTTCTGTTCAAGCGCCATCTAC | 1.6 RPM ratio (pull-down/input) |
| GATGATTGTTCTCCCAGCTGATGAATTTATTGAGTCGAGTAAACAAATTTTCCTAATCTTTCTGTTCAAGCGCCATCTAC | 1.1 RPM ratio (pull-down/input) |
| GATGATTGTTCTCCCAGCTGATGAATTTCGTTACTCGAGTAAACAAATTTTCCTAATCTTTCTGTTCAAGCGCCATCTAC | 0.864 RPM ratio (pull-down/input) |
| GATGATTGTTCTCCCAGCTGATGAATTTCAAGGATCGAGTAAACAAATTTTCCTAATCTTTCTGTTCAAGCGCCATCTAC | 0.841 RPM ratio (pull-down/input) |
| GATGATTGTTCTCCCAGCTGATGAATTGCATGTATCGAGTAAACAAATTTTCCTAATCTTTCTGTTCAAGCGCCATCTAC | 1.43 RPM ratio (pull-down/input) |
| GATGATTGTTCTCCCAGCTGATGAATTACGCACCTCGAGTAAACAAATTTTCCTAATCTTTCTGTTCAAGCGCCATCTAC | 0.919 RPM ratio (pull-down/input) |
| GATGATTGTTCTCCCAGCTGATGAATTTGTATACTCGAGTAAACAAATTTTCCTAATCTTTCTGTTCAAGCGCCATCTAC | 2.13 RPM ratio (pull-down/input) |
| GATGATTGTTCTCCCAGCTGATGAATTGGAATATTCGAGTAAACAAATTTTCCTAATCTTTCTGTTCAAGCGCCATCTAC | 0.93 RPM ratio (pull-down/input) |
| GATGATTGTTCTCCCAGCTGATGAATTAGTTACATCGAGTAAACAAATTTTCCTAATCTTTCTGTTCAAGCGCCATCTAC | 1.13 RPM ratio (pull-down/input) |
| GATGATTGTTCTCCCAGCTGATGAATTCTTGCCATCGAGTAAACAAATTTTCCTAATCTTTCTGTTCAAGCGCCATCTAC | 0.955 RPM ratio (pull-down/input) |
| GATGATTGTTCTCCCAGCTGATGAATTTCATGACTCGAGTAAACAAATTTTCCTAATCTTTCTGTTCAAGCGCCATCTAC | 0.827 RPM ratio (pull-down/input) |
| GATGATTGTTCTCCCAGCTGATGAATTCATATCGTCGAGTAAACAAATTTTCCTAATCTTTCTGTTCAAGCGCCATCTAC | 0.946 RPM ratio (pull-down/input) |

| Sequence | binding signal |
| --- | --- |
| GATGATTGTTCTCCCAGCTGATGAATTCGGCAATTCGAGTAAACAAATTTTCCTAATCTTTCTGTTCAAGCGCCATCTAC | 0.974 RPM ratio (pull-down/input) |
| GATGATTGTTCTCCCAGCTGATGAATTCGGGTACTCGAGTAAACAAATTTTCCTAATCTTTCTGTTCAAGCGCCATCTAC | 0.838 RPM ratio (pull-down/input) |
| GATGATTGTTCTCCCAGCTGATGAATTGTAACGGTCGAGTAAACAAATTTTCCTAATCTTTCTGTTCAAGCGCCATCTAC | 0.979 RPM ratio (pull-down/input) |
| GATGATTGTTCTCCCAGCTGATGAATTTTTCGTATCGAGTAAACAAATTTTCCTAATCTTTCTGTTCAAGCGCCATCTAC | 1 RPM ratio (pull-down/input) |
| GATGATTGTTCTCCCAGCTGATGAATTCAAGCCTTCGAGTAAACAAATTTTCCTAATCTTTCTGTTCAAGCGCCATCTAC | 0.87 RPM ratio (pull-down/input) |
| GATGATTGTTCTCCCAGCTGATGAATTTCACAGTTCGAGTAAACAAATTTTCCTAATCTTTCTGTTCAAGCGCCATCTAC | 0.88 RPM ratio (pull-down/input) |
| GATGATTGTTCTCCCAGCTGATGAATTAGGGTAGTCGAGTAAACAAATTTTCCTAATCTTTCTGTTCAAGCGCCATCTAC | 0.899 RPM ratio (pull-down/input) |
| GATGATTGTTCTCCCAGCTGATGAATTCTCGGCATCGAGTAAACAAATTTTCCTAATCTTTCTGTTCAAGCGCCATCTAC | 1.02 RPM ratio (pull-down/input) |
| GATGATTGTTCTCCCAGCTGATGAATTCCACTAATCGAGTAAACAAATTTTCCTAATCTTTCTGTTCAAGCGCCATCTAC | 1.07 RPM ratio (pull-down/input) |
| GATGATTGTTCTCCCAGCTGATGAATTTCGCACCTCGAGTAAACAAATTTTCCTAATCTTTCTGTTCAAGCGCCATCTAC | 0.792 RPM ratio (pull-down/input) |
| GATGATTGTTCTCCCAGCTGATGAATTTGCACCCTCGAGTAAACAAATTTTCCTAATCTTTCTGTTCAAGCGCCATCTAC | 0.929 RPM ratio (pull-down/input) |
| GATGATTGTTCTCCCAGCTGATGAATTTAGATCTTCGAGTAAACAAATTTTCCTAATCTTTCTGTTCAAGCGCCATCTAC | 0.992 RPM ratio (pull-down/input) |
| GATGATTGTTCTCCCAGCTGATGAATTGTGTTGTTCGAGTAAACAAATTTTCCTAATCTTTCTGTTCAAGCGCCATCTAC | 2.69 RPM ratio (pull-down/input) |
| GATGATTGTTCTCCCAGCTGATGAATTCTCGGGATCGAGTAAACAAATTTTCCTAATCTTTCTGTTCAAGCGCCATCTAC | 0.724 RPM ratio (pull-down/input) |
| GATGATTGTTCTCCCAGCTGATGAATTCAAATGTTCGAGTAAACAAATTTTCCTAATCTTTCTGTTCAAGCGCCATCTAC | 0.944 RPM ratio (pull-down/input) |
| GATGATTGTTCTCCCAGCTGATGAATTAGATACGTCGAGTAAACAAATTTTCCTAATCTTTCTGTTCAAGCGCCATCTAC | 1.06 RPM ratio (pull-down/input) |
| GATGATTGTTCTCCCAGCTGATGAATTCGGTCGGTCGAGTAAACAAATTTTCCTAATCTTTCTGTTCAAGCGCCATCTAC | 0.76 RPM ratio (pull-down/input) |
| GATGATTGTTCTCCCAGCTGATGAATTATGACTCTCGAGTAAACAAATTTTCCTAATCTTTCTGTTCAAGCGCCATCTAC | 0.928 RPM ratio (pull-down/input) |
| GATGATTGTTCTCCCAGCTGATGAATTTCTGAGATCGAGTAAACAAATTTTCCTAATCTTTCTGTTCAAGCGCCATCTAC | 0.753 RPM ratio (pull-down/input) |
| GATGATTGTTCTCCCAGCTGATGAATTGTCAAAATCGAGTAAACAAATTTTCCTAATCTTTCTGTTCAAGCGCCATCTAC | 1.12 RPM ratio (pull-down/input) |
| GATGATTGTTCTCCCAGCTGATGAATTAGGCACTTCGAGTAAACAAATTTTCCTAATCTTTCTGTTCAAGCGCCATCTAC | 0.916 RPM ratio (pull-down/input) |

From paper PMC12820563, “FoxP3 forms a head-to-head dimer in vivo and stabilizes its multimerization on adjacent microsatellites”
